In all, about 110,000 compounds were measured (“z-score”: median about -0.1, highest 2% from about 2 on). The list shows a part of the results. Active and inactive are the calls of the source.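 Rule for the calls: active = z-score in the third read window above 3 or below -3; inactive = the rest.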

In this assay the target is Metabotropic glutamate receptor 8 (Rattus norvegicus) (UniProt P70579). In words: rat mGluR8 modulators via GIRK flux, primary screen, cell-based, thallium flux, HTS (AID 488969). Conditions: HEK293 rat mGluR8, GIRK (G protein-gated inwardly rectifying potassium channel) thallium flux, FluoZin2; at 10 µM; stronger effect = higher value; submaximal glutamate (EC20) added with thallium.
UniProt P70579, sequence (P70579 whole entry, looked up): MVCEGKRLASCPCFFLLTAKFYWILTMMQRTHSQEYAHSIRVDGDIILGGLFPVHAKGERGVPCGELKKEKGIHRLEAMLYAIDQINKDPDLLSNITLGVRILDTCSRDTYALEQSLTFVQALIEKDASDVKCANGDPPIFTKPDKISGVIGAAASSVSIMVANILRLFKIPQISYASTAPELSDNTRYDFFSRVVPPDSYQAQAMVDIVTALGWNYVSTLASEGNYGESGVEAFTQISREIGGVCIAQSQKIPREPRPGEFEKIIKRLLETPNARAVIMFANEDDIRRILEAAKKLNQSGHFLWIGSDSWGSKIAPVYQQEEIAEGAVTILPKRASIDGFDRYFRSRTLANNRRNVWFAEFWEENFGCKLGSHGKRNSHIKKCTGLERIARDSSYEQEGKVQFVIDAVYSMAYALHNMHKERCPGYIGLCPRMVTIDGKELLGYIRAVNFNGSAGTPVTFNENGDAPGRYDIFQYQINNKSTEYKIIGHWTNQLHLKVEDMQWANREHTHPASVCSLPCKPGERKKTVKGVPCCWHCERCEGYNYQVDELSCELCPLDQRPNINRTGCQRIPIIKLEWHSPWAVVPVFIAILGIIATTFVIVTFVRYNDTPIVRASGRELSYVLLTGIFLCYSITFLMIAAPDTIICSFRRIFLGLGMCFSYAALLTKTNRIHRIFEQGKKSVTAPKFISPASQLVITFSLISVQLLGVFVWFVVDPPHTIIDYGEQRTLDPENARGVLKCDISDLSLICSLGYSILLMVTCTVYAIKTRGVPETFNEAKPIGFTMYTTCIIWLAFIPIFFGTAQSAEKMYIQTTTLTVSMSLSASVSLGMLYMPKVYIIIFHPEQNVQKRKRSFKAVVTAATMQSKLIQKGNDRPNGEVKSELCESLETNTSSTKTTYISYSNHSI
Turning to `O=C(NNC(=O)c1sc2cccc(Cl)c2c1Cl)Nc1ccccc1`, the z-score was -0.00877.

For the compound `CCn1c(SCC(=O)Nc2ccc3c(c2)OCO3)nc2c(c1=O)SC(C)C2` (stereo unspecified), the z-score was -1.26.

Turning to `Cc1ccc(O)c(-c2cc3ccccc3[nH]2)c1`, the z-score was -0.436.

Compound `COc1ccc2c(c1)c1ncn(CCN3CCCCC3)c(=O)c1n2C` registered a z-score of 0.327.

`CCCN(CCO)Cc1ccc2ccccc2c1`: the z-score was found to be 0.118.

`CCCCOc1ccc(C(=O)Nc2cccc(C)n2)cc1` gave a z-score of 0.799.

As for `O=C1c2[nH]nc(-c3ccccc3O)c2C(c2cccc(O)c2)N1Cc1ccco1` (stereo unspecified), the z-score was -1.07.

With `O=C(Cn1nc(Cc2ccncc2)c2ccccc2c1=O)N1CCc2ccccc2C1`, the z-score is -0.433.

Take `CCOC(=O)c1c(NC(=O)C2CCN(S(=O)(=O)c3cccs3)CC2)sc(C)c1C`: the z-score is -0.183.

As to `COc1ccccc1NC(=O)CSc1nnc(-c2ccc(C)cc2)o1`, the z-score was 0.0983.

For `CC(=O)Nc1cc(C(=O)N2CCCC2)ccc1S(=O)(=O)c1ccc(C)cc1`, the z-score was -0.215.

Take `O=C(CCCNC(=O)/C(=C\c1ccc(F)cc1)NC(=O)c1ccccc1)OCc1ccccc1`: the z-score was -0.231.

With `CCn1c(SCC(=O)N2CCCC2)nc2ccccc2c1=O`, the z-score is -0.614.

For `O=C(NC(=S)Nc1ccccc1)c1csnn1`, the z-score is active: 12.4.

Turning to `Cc1ccc(C(=O)COC(=O)c2n[nH]c(=O)c3ccccc23)cc1`, the z-score is -0.454.

With `Cc1ccc(NC(=O)CN2C(=O)N/C(=C/c3ccc(C)s3)C2=O)cc1`, the z-score is 0.22.

`COc1ccc(N2CCN(c3nc4ccccc4nc3NS(=O)(=O)c3ccccc3)CC2)cc1`: the z-score is -0.415.

Turning to `O=C(CNCCCO)Nc1cc(C(F)(F)F)cc(NC(=O)CNCCCO)c1Cl`, the z-score is -0.195.

`CC1(C)CC2(CCO1)N1CC3(C)CN2CC(C)(C1)C3=O` (stereo unspecified): the z-score is -0.0677.

Turning to `O=C(NC(=S)Nc1cccc(NC(=O)c2ccccc2)c1)c1cccc([N+](=O)[O-])c1`, the z-score was -0.0765.

With `COc1ccc(CSCC(=O)N/N=C/c2ccc(OCC(=O)N3CCCCC3)cc2)cc1`, the z-score is 0.789.

In turn, `O=C(CN1C(=O)c2ccccc2C1=O)Nc1ccc(S(=O)(=O)NCC2CCCO2)cc1` (stereo unspecified) displayed a z-score of 0.358.

In the case of `CCCCNC(=S)N=Nc1c(O)n(Cc2ccccc2)c2ccccc12`, the z-score is active: 3.24.

`C=CCNC(=O)/C(=C/c1cn(-c2ccccc2)nc1-c1cccc([N+](=O)[O-])c1)NC(=O)c1ccccc1` registered a z-score of 0.195.

On to `CCN(CC)CCCNC(=O)c1nn(-c2ccc(OC)cc2OC)c(=O)c2ccccc12`, for which the z-score came out at 0.819.

Compound `Cc1ccc(CN2C(=O)CCC2C(=O)NCCCN2CCOCC2)cc1` (stereo unspecified) gave a z-score of 0.61.

`Cc1cc(C(F)F)n2ncc(C(=O)N3CCCCC3)c2n1` showed a z-score of 0.264.

Consider `O=C(Nc1ccccc1-c1nnn(CC(=O)N2CCCc3ccccc32)n1)c1cccc(Cl)c1`, for which the z-score is -0.264.

In the case of `O=C(/C(=C(/[O-])c1ccccc1)[n+]1ccccc1)c1ccc([N+](=O)[O-])cc1`, the z-score is -0.0505.

Take `O=C(CSc1nnc(CNC(=O)C23CC4CC(CC(C4)C2)C3)n1-c1ccccc1)Nc1ccccc1`: the z-score is -0.232.

Regarding `COc1ccc2cc(C)c3nnc(SCC(=O)Nc4nc(-c5ccc(F)cc5)cs4)n3c2c1`, the z-score was -0.129.

With `CN1CCN(C(=O)c2ccc3c(c2)OCCO3)CC1`, the z-score is -0.229.

For `O=C(NCc1ccc2c(c1)OCO2)c1ccc(CS(=O)(=O)c2cccc(C(F)(F)F)c2)o1`, the z-score was -0.319.

On to `CCOC(=O)C(NC(C)=O)(Nc1ccc(S(=O)(=O)Nc2nccs2)cc1)C(F)(F)F` (stereo unspecified), for which the z-score was -0.0419.

As to `CC(=O)c1cc(CC=C(C)C)c(O)cc1O`, the z-score was -0.324.

Take `CC(C)C(C)(C#N)NC(=O)CSc1nc2scc(-c3ccc(F)cc3)c2c(=O)n1Cc1ccccc1` (stereo unspecified): the z-score was found to be 0.87.

`CC1CCN(C(=O)CCc2ccc(Oc3cc([N+](=O)[O-])cc([N+](=O)[O-])c3)cc2)CC1`: the z-score is -0.246.

In turn, `N#Cc1c(C(F)(F)F)cc(-c2cccs2)nc1SCc1ccc(Cl)nc1` came in with a z-score of 0.143.

Take `Cc1sc2ncnc(N3CCCCC3)c2c1C`: the z-score is -1.55.

Take `CCCCOC(=O)CSCC(=O)N1N=C(c2cccs2)CC1c1ccc(F)cc1` (stereo unspecified): the z-score was -0.426.

Regarding `NS(=O)(=O)c1ccc(N2N=C(c3ccc(Br)cc3)CC2c2ccc(F)cc2)cc1` (stereo unspecified), the z-score turned out to be 0.139.

In the case of `Cc1ccsc1C(=O)N1CC(=O)Nc2ccccc21`, the z-score was -0.171.

The compound `COc1ccc(NC(=O)c2cccnc2N2CCCC2)cc1` registered a z-score of 0.603.

On to `COc1cc2c(cc1NC(=O)c1cccnc1)oc1ccccc12`, for which the z-score was 0.495.

As for `COc1cccc(CN(c2ccc3c(c2)CCC3)S(=O)(=O)c2ccc(-n3cnnn3)c(OC)c2)c1`, the z-score was -0.386.

For `Cc1cc(C)n(-c2nc(NCC3CCCO3)c3c4c(sc3n2)COC(C)(C)C4)n1` (stereo unspecified), the z-score was -2.

For the compound `CCc1ccc(C(C)NC(=O)c2ccc(F)cc2)cc1` (stereo unspecified), the z-score was -0.0454.

`Cc1cc(C(=O)CSc2nc3ccccc3c(=O)n2C)c(C)n1Cc1ccc2c(c1)OCO2`: the z-score was -0.571.

`CCc1c(C)sc(NC(=O)CCc2ccc(OC)cc2)c1C(N)=O`: the z-score is 1.75.

Take `COc1ccc(NC(=S)Nc2ncccc2C)c(OC)c1`: the z-score was -0.494.

In turn, `Cc1cc(C)c(-c2cc(NC(=O)COC(=O)c3ccc(C#N)cc3)n(-c3ccccc3)n2)cc1C` displayed a z-score of 0.345.

With `O=C(O)/C=C/c1cn(-c2ncc(C(F)(F)F)cc2Cl)c2ccccc12`, the z-score is -0.0759.

In turn, `CCCOc1ccc(-c2cn3ccccc3n2)cc1[N+](=O)[O-]` returned a z-score of 0.152.

Consider `N#Cc1cn(CCCOc2ccccc2)c2ccccc12`, for which the z-score was -0.17.

For the compound `COC(=O)c1cc(NC(=O)C2CC=CCC2C(=O)O)cc(C(=O)OC)c1` (stereo unspecified), the z-score came out at 0.249.

On to `NC1=NC2(CCCCC2)N(c2ccc(F)cc2)C(N)=N1`, for which the z-score was -0.0907.

`Fc1ccc(-c2nnc(CSc3nnc(-c4ccc5c(c4)OCO5)o3)o2)cc1` displayed a z-score of 0.268.

Turning to `COc1ccc(C)cc1NC(=O)CSc1nnc(-c2ccco2)n1N`, the z-score was -0.334.

The compound `CCN1CCN(C(=O)c2ccc(Sc3ccccc3Cl)c([N+](=O)[O-])c2)CC1` yielded a z-score of 0.195.

In the case of `CCCCn1c(SCC(N)=O)nc2ccc(N3CCOCC3)cc2c1=O`, the z-score was 1.29.

Take `COC(=O)c1cccc(NS(=O)(=O)c2ccc(OC)c(OC)c2)c1C`: the z-score is -0.378.

For `Cc1cc(C)n(-c2nnc3n2N=C(c2ccccc2)CS3)n1`, the z-score is -0.411.

Consider `CCc1nc2ccccc2c(NC(=O)CN2CCC(C)CC2)c1C`, for which the z-score was -0.409.

Turning to `NC(=O)c1ccc(NC(=O)CCCN2C(=O)c3ccccc3C2=O)cc1`, the z-score was -0.211.

For `Cc1ccccc1-n1nnnc1SCc1csc(-c2ccccc2)n1`, the z-score was -0.0982.

For the compound `O=C(COc1ccc(Cl)cc1)N1CCN(c2ccc([N+](=O)[O-])c(N3CCCCC3)c2)CC1`, the z-score is -0.692.

Source of the values: PubChem BioAssay AID488969 (Vanderbilt High Throughput Screening Facility, 2010).
